# Source: PubChem BioAssay (NCATS)
# Inconclusive means that the source gave no clear call. Such entries were picked first, then a sample of the others. For some of these results: Potencies of inconclusive entries are doubtful fits and often do not repeat. Activity calls are given as the source filed them. Unless noted, the call rests on the fitted dose curve; in most records, active means well fitted curve in the direction sought with a large enough effect; inconclusive means small, poorly fitted or top-dose-only effect, or another doubt; inactive means no such curve, though single readings can be large; an effect the other way counts as inactive or inconclusive.
# Tests used:
# [1] = qHTS Assay for Identification of Small Molecule Agonists for Hypoxia Response Element Signaling Pathway (AID 914; active means well fitted activation curve with a large enough effect in the signal ratio, with a control signal flat, not every such curve was filed as active; inconclusive means small, poorly fitted or top-dose-only effect, or effect the other way, or a change in a side signal; the % refers to the signal ratio; further: top concentration of the series differs between compounds; % of control where 0% means no effect); conditions: ME-180 (cervical carcinoma) HRE-bla reporter, beta-lactamase ratio, CoCl2, 17 h; activation: active compounds read high
# Method in brief: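 qHTS titration; ME-180 HRE-bla cells; EC50 CoCl2 co-treatment, 17 h at 37 degrees Celsius; CCF4 dye, ex 405nm, em 460nm and 530nm; %Activity from ratio; AC50.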
# [2] = target: Muscarinic acetylcholine receptor M1 (Rattus norvegicus) (UniProt P08482); assay: qHTS Assay for Antagonists of Acetylcholine Muscarinic M1 Receptor: Measurement of IP-One Response (AID 944); further: nearly all actives have a fitted effect of over 75% in size; further: potency means the concentration at half of the fitted maximal effect
# Chain of UniProt P08482 (P08482 whole entry, looked up): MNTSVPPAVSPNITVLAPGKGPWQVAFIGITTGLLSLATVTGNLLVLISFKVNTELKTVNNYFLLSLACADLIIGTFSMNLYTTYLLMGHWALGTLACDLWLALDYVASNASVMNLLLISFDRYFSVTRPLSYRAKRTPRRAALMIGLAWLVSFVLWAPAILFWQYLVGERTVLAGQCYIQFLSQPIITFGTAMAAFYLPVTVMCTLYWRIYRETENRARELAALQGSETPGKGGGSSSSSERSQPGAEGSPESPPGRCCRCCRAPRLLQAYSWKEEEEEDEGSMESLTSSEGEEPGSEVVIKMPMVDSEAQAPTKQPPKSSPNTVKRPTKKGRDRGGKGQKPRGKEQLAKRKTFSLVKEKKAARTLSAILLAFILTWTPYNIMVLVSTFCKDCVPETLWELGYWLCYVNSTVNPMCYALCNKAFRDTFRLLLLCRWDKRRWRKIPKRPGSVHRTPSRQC
# [3] = qHTS Assay for Identification of Small Molecule Agonists for Thrombopoietin (TPO) Signaling Pathway (AID 917); further: potency means the concentration at half of the fitted maximal effect
# Method in brief: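 Stimulation at the TPO EC50 (26 pM final) was used to detect activators. Ba/F3 mouse cells bearing human TPO receptor and a luciferase reporter under the Glycoprotein IIb promoter were exposed to compounds for 24 hrs at 37 C.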
# [4] = target: Ferritin light chain (Equus caballus) (UniProt P02791); assay: qHTS Validation Assay for Identification of Novel General Anesthetics (AID 2323); further: series mostly up to about 77 µM; on the % scale 0 is the no-effect control and ±100 the full control effect
# Chain of UniProt P02791 (P02791 2-175 limits assumed): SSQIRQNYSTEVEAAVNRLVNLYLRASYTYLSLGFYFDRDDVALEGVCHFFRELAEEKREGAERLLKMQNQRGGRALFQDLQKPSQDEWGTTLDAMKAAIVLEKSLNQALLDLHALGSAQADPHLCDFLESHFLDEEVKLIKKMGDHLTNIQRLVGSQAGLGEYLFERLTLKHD
# Method in brief: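 Horse-spleen apoferritin (10 uM) in PBS with 50% saturated 1-aminoanthracene; compounds pin-transferred, 10 min at room temperature. Fluorescence read at 380/535 nm, normalized to free 1-AMA and 1-AMA/apoferritin values; four-parameter Hill fit.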
# [5] = qHTS for Inhibitors of ATXN expression: Validation (AID 588378); further: nearly all actives have a fitted effect of over 75% in size; further: potency means the concentration at half of the fitted maximal effect
# Method in brief: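 HEK293 cells carrying ATXN2-firefly luciferase reporter, treated with compound 24 h at 37 °C. Viability read first by CellTiter-Fluor (405/525 nm), then reporter expression by Bright-Glo luminescence; controls were a known ATXN2 expression inhibitor and a luciferase inhibitor.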
# [6] = target: ATP-dependent DNA helicase Q1 (Homo sapiens) (UniProt P46063); assay: qHTS Validation Assay for Inhibitors of RecQ-Like Dna Helicase 1 (RECQ1) (AID 2353); further: potency means the concentration at half of the fitted maximal effect
# Chain of UniProt P46063 (P46063 whole entry, looked up): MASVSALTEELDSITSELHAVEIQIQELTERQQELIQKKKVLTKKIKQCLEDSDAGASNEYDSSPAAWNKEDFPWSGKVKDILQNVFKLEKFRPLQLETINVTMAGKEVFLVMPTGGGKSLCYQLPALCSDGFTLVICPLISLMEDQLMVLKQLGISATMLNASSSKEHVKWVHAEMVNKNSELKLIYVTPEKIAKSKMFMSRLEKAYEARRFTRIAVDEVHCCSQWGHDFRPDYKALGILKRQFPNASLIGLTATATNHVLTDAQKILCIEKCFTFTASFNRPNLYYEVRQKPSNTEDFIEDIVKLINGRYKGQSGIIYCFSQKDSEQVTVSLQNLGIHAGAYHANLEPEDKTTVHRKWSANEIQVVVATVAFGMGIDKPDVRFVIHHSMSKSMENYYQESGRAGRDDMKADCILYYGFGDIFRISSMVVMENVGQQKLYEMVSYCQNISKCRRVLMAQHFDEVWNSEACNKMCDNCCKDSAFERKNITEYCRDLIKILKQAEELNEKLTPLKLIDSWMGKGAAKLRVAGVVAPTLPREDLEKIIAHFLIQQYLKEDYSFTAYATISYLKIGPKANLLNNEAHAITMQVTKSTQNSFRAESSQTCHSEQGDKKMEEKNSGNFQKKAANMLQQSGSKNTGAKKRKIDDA
# Method in brief: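 RECQ1T1 50 nM; forked duplex (20 bp + 30-nt ss tails) 200 nM, ATP 2 mM final; pH 8.0, 2 mM MgCl2, 2.5 ug/ml poly(dI-dC); 15 min compound preincubation; discontinuous kinetic read over 2 h at RT.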
# [7] = target: Tyrosyl-DNA phosphodiesterase 1 (Homo sapiens) (UniProt Q9NUW8); assay: Confirmation Assay for Inhibitors of Tyrosyl-DNA Phosphodiesterase (TDP1) (AID 489007); conditions: recombinant human TDP1 enzymatic activity, dose-response; further: potency means the concentration at half of the fitted maximal effect; nearly all actives have a fitted effect of over 40% in size
# Chain of UniProt Q9NUW8 (Q9NUW8 whole entry, looked up): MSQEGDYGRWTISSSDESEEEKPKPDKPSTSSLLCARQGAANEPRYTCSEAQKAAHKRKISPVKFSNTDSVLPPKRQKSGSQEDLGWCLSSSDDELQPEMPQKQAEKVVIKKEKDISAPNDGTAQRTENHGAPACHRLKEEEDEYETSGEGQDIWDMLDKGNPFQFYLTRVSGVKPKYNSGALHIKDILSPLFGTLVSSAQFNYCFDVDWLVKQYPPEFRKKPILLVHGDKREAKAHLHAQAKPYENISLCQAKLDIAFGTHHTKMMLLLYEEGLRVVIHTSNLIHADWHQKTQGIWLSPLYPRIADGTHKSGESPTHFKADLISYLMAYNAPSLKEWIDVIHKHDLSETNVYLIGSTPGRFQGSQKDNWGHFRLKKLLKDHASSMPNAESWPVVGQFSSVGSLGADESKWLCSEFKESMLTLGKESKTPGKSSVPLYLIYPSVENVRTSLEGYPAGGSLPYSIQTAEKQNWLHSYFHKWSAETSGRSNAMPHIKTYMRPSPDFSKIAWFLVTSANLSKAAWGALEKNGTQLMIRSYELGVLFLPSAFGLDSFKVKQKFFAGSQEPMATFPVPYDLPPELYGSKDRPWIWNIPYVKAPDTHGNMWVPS
# Method in brief: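 AlphaScreen assay of tyrosine-FITC cleavage from a biotinylated DNA substrate (15 nM) by E. coli-expressed human Tdp1 (1 nM). Sequence: compound preincubation 15 min, reaction 5 min, bead detection 10 min, all at room temperature. No-enzyme wells give maximum signal.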
# [8] = target: Calcium and integrin-binding protein 1 (Homo sapiens) (UniProt Q99828); assay: Validation qHTS for Identification of Calcium Integrin Binding protein 1 (CIB1) Competitor (AID 1508618); further: potency means the concentration at half of the fitted maximal effect
# Chain of UniProt Q99828 (Q99828 whole entry, looked up): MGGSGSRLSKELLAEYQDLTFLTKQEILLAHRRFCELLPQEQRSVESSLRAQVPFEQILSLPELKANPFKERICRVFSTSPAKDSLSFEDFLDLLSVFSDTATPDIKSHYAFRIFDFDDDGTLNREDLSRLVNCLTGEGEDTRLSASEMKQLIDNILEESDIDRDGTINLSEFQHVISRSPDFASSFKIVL
# Method in brief: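 CIB1-GST (1 uM final) incubated 15 min at room temperature with compounds (up to 114 uM), then FITC-labelled alphaIIb peptide (100 nM) added. FP read (Ex 480/Em 540) after 15 min, pH 7.4 buffer containing 5 mM CaCl2.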
# [9] = target: Glutathione peroxidase 1 (Homo sapiens) (UniProt P07203); assay: Primary qHTS Assay for Inhibitors of Recombinant Selenoprotein Glutathione Peroxidase 1 (GPX1) (AID 1845191); further: potency means the concentration at half of the fitted maximal effect; nearly all actives have a fitted effect of over 65% in size
# Chain of UniProt P07203 (P07203 whole entry, looked up): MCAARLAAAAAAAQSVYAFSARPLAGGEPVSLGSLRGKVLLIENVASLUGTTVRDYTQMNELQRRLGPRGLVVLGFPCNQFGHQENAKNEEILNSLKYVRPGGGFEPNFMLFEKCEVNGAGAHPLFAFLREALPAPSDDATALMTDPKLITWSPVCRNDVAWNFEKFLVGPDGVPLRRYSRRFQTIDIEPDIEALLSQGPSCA
# Method in brief: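 GR-coupled readout: NADPH consumption tracked by fluorescence, ex 340/em 450 nm, at t=0 and after 15 min at RT. Final mix 10 nM GPX1, 1 mM GSH, 0.5 mM CHP, 0.5 mM NADPH, 100 nM GR, 0.01% BSA, following 30 min enzyme–compound preincubation.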
# [10] = target: Phospholipid hydroperoxide glutathione peroxidase GPX4 (Homo sapiens) (UniProt P36969); assay: Primary qHTS Assay for Inhibitors of Recombinant Selenoprotein Glutathione Peroxidase 4 (GPX4) (AID 1845192); further: potency means the concentration at half of the fitted maximal effect; nearly all actives have a fitted effect of over 65% in size
# Chain of UniProt P36969 (P36969 whole entry, looked up): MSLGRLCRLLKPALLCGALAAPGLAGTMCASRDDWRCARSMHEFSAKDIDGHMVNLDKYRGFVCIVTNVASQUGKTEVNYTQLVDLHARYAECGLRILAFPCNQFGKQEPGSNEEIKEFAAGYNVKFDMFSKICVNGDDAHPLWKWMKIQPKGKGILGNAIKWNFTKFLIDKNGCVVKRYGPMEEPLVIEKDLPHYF
# Method in brief: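 Steps: GPX4 plus compound, 30 min RT; add GR/GSH/NADPH master mix; start with cumene hydroperoxide; read 340/450 nm fluorescence at 0 and 15 min. Finals were 200 nM GPX4, 1 mM GSH, 0.5 mM CHP, 0.5 mM NADPH, 100 nM GR.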
# [11] = High Content Imaging Cell-Based qHTS for Inhibitors of the mTORC1 Signaling Pathway in MEF Cells (AID 2667); further: potency means the concentration at half of the fitted maximal effect
# Method in brief: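 Read-out is the share of phospho-rpS6-positive cells per well, from Hoechst-normalized Alexa-488 Ser235/236 staining imaged on IN Cell. Cells: WT Tsc2-expressing Tsc2-/-, p53-/- MEFs exposed to compound for 24 hrs.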
# [12] = target: DNA polymerase III PolC-type (Bacillus subtilis (strain 168)) (UniProt P13267); assay: qHTS Validation Assay for the Inhibitors of DNA Replication in Gram-Positive Bacteria (AID 485295);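 further: PicoGreen fluorescence of double-stranded DNA made on primed circular M13 template; series mostly up to about 57 µM; 0% = DMSO wells and -100% = EDTA-quenched background wells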
# Chain of UniProt P13267 (P13267 whole entry, looked up): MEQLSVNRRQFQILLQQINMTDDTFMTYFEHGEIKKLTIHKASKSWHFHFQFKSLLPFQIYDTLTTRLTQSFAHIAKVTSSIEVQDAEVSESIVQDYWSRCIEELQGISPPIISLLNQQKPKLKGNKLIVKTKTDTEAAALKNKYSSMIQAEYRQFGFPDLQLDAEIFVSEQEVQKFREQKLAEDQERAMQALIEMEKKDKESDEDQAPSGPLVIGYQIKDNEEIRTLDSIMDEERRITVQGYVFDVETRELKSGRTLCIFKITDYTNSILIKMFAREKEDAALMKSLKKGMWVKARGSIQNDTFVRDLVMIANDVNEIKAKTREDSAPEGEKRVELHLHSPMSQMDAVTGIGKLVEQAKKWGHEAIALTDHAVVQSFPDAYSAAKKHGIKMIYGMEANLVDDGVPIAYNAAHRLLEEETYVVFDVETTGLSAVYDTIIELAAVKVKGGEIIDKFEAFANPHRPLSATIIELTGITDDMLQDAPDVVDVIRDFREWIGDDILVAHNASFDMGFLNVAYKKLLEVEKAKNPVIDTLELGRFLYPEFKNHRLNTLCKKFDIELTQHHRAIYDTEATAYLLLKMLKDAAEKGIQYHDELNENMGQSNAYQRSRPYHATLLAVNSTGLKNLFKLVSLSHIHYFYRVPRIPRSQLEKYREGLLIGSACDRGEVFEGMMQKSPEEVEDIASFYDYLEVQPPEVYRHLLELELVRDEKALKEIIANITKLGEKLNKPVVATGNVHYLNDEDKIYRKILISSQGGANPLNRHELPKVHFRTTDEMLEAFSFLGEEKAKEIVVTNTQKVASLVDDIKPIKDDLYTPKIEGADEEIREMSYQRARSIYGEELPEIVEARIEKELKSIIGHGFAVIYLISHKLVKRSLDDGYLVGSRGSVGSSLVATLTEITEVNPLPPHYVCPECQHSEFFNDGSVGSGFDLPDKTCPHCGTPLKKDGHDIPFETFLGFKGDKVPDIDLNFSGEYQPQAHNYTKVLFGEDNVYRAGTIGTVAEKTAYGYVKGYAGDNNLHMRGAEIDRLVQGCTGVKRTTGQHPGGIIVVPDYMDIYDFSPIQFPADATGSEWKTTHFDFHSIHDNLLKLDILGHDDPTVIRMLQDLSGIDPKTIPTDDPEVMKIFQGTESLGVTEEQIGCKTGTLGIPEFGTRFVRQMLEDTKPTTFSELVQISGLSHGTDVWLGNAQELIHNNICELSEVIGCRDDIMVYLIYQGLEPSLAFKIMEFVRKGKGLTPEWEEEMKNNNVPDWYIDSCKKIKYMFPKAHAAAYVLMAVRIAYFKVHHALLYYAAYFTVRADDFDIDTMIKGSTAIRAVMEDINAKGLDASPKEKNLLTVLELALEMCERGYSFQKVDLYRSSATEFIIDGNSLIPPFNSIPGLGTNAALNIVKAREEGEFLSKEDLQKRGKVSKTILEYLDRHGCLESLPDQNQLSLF
# Method in brief: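 Reconstituted B. subtilis Pol III holoenzyme (PolC, beta clamp, SSB, primase) preincubated with compound, then M13Gori single-stranded circular template with dNTPs/NTPs added; room temperature reaction. Stopped with EDTA/PicoGreen; dsDNA fluorescence read, EDTA as full-inhibition control.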
# [13] = target: Thioredoxin reductase 1, cytoplasmic (Rattus norvegicus) (UniProt O89049); assay: qHTS Assay for Substrates of Mammalian Selenoprotein Thioredoxin Reductase 1 (TrxR1) (AID 488772);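 further: potency means the concentration at half of the fitted maximal effect; a drop in NADPH fluorescence below the no-compound background marks a TrxR1 substrate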
# Chain of UniProt O89049 (O89049 whole entry, looked up): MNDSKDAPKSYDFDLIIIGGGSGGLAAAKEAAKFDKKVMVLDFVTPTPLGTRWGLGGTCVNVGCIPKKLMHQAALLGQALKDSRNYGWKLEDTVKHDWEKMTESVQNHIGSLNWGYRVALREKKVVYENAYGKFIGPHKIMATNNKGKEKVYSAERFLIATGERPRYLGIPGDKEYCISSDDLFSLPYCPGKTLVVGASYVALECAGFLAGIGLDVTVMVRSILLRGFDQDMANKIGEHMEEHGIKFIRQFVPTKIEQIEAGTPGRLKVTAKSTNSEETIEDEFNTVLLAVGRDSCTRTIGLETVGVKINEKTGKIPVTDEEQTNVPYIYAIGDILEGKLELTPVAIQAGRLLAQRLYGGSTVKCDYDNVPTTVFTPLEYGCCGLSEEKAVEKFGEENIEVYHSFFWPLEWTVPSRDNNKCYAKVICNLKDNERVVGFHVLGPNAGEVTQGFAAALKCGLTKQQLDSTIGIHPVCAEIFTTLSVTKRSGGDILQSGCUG
# Method in brief: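 In this dual-purpose format, potential substrates are identified from the first fluorescence read after selenite addition, not from the 8-minute delta. Rat enzyme is preincubated with NADPH and then with compound at ~22 deg C.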
# [14] = qHTS of Trypanosoma Brucei Inhibitors: LOPAC Validation (AID 624147); further: potency means the concentration at half of the fitted maximal effect
# Method in brief: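 Screened from lowest to highest concentration, compounds were pinned into TbPYK/substrate mixtures, and ADP (130 uM final) was added. Plates sat at room temperature for 45 min prior to Kinase-Glo Plus detection by luminescence.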
# Tags describe the fitted curve by direction and shape.
structure (smiles),measurement,setting,value
[Li+],activation,[1],inactive: 9.95%
same,Potency,[2],inactive
NCCCNCCCCNCCCN,Potency,[3],"inconclusive: 7.94 µM [inhibitor, partial curve]"
same,Potency,[4],inactive
same,Potency,[5],inactive
CCCn1c(=O)c2[nH]c(-c3ccc(OCC(=O)NCCN)cc3)nc2n(CCC)c1=O,Potency,[2],"inconclusive: 10 µM [inhibitor, partial curve, poor fit]"
CO/N=C(\C(=O)N[C@@H]1C(=O)N2C(C(=O)O)=C(CSc3nc(=O)c(O)nn3C)CSC12)c1csc(N)n1 (stereo partly specified),Potency,[6],"inconclusive: 10 µM [inhibitor, single point]"
same,Potency,[7],active: 3.16 µM
same,Potency,[8],"inconclusive: 20 µM [inhibitor, full curve]"
same,Potency,[9],active: 25.1 µM
same,Potency,[10],"inconclusive: 20 µM [inhibitor, partial curve]"
CN1CCc2cc(O)c(O)cc2C(c2ccccc2)C1 (stereo unspecified),Potency,[11],"inconclusive: 23.3 µM [falling, single point]"
same,Potency,[12],inactive
same,Potency,[5],"inconclusive: 39.8 µM [inhibitor, single point]"
Oc1cc2c(cc1O)C(c1ccccc1)CNCC2 (stereo unspecified),Potency,[13],"inconclusive: 2.99 µM [inhibitor, full curve, poor fit]"
same,Potency,[14],"inconclusive: 15.1 µM [inhibitor, partial curve]"
